# Test results: PubChem BioAssay AID1508642 (National Center for Advancing Translational Sciences (NCATS), 2021)
# The campaign covered roughly 43,000 compounds. About 200 (0.47%) were called active. Not shown: some 12% with an inconclusive outcome. Calls come from the whole dose curve; as a rule, active = well fitted cell-killing curve with a large enough effect; inconclusive = small, poorly fitted or top-dose-only effect, or effect the other way; inactive = flat fitted curve, though single readings scatter. The list shows a part of the results.
# Assay: Cell viability qHTS assay in S16 Pmp22-F2sN cells; note: nearly all actives have a fitted effect of over 65% in size
# Conditions: S16 Pmp22-F2sN Schwann cells viability, CellTiter-Glo, 24 h; series mostly up to 57.5 µM; activity change, negative = cytotoxicity: at the top concentration
# Outline: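 Used to flag compounds lowering reporter output through toxicity, this quantitative HTS measures ATP-based CellTiter-Glo luminescence in S16 Pmp22-F2sN Schwann cells after 24 h compound exposure at 37C.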
# % is set by controls: 0 for no effect and ±100 for the full control effect.
row,Structure (SMILES),"activity change, negative = cytotoxicity"
1,Cc1ccc(NC(=O)C(=O)NCC2(c3ccccc3)CCCC2)cc1Cl,inactive: 8.11%
2,O=C(NCCc1ccccc1)c1cnn(-c2ccc(F)cc2)c1-n1cccc1,inactive: -3.79%
3,CCOC(=O)N1CCc2c(sc3c2c(=O)n(CCc2ccccc2)c(=O)n3Cc2c(F)cccc2Cl)C1,inactive: 16%
4,Cc1ccc(NC(=O)CSc2nc3n[nH]c(C)c3c(=N)n2-c2cccc(C)c2)cc1,inactive: -15.9%
5,O=C(CN1C(=O)COc2ccc(S(=O)(=O)N3CCCCCC3)cc21)NCc1ccc(F)cc1,inactive: 3.94%
6,Cc1cc(C)cc(Oc2nc3c(c(=O)n(C)c(=O)n3C)n2Cc2ccc(F)cc2)c1,inactive: -2.98%
7,CCOC(=O)c1ccccc1NC(=O)N(C)CCc1c(C)nn(CC)c1C,inactive: -4.81%
8,COc1ccc(F)cc1S(=O)(=O)NCCc1sc2nc(-c3ccc(F)cc3)nn2c1C,inactive: -22.8%
9,CCc1nnc(SCC(=O)Nc2ccc(F)cc2F)c2cc3sc(C)cc3n12,inactive: -2.74%
10,COc1ccc(N2CCN(c3oc(/C=C/c4cc(OC)c(OC)c(OC)c4)nc3C#N)CC2)cc1,inactive: 11.9%
11,COc1cc(C(=O)Nc2ccc3oc(-c4ccc(C)c(Br)c4)nc3c2)cc(OC)c1OC,inactive: -0.34%
12,COc1ccc(Nc2cc(C(=O)NCc3ccccc3OC)c3ccccc3n2)cc1,inactive: -3.16%
13,Cc1cc(OCC(=O)N(Cc2sccc2C)C2CCS(=O)(=O)C2)ccc1Cl (stereo not given),inactive: -7.88%
14,COc1ccc(CNC(=O)CN2C(=O)c3cccnc3Oc3ccc(C)cc32)cc1,inactive: 2.52%
15,Cc1cc(C)c2c(CC(=O)Nc3c(C(=O)Nc4ccc(Cl)cc4)oc4ccccc34)coc2c1,inactive: 2.88%
16,CCc1cccc(C)c1NC(=O)CSc1nnc(CC)n2c1cc1occc12,inactive: 6.77%
17,CC(C(=O)NCc1ccccc1F)n1ccc2cc(S(=O)(=O)N3CCCC3)ccc21 (stereo not given),inactive: -5.88%
18,CCOc1ccccc1NC(=O)c1c(NC(=O)c2cccc(C)c2)sc2c1CCCC2,inactive: 26.5%
19,CC1CN(C(=O)Nc2ccc(C(=O)NCc3cccc(F)c3)cc2)c2ccccc2S1 (stereo not given),inactive: -2.13%
20,O=C(Nc1ccccc1Cl)N1CCC(CN2CCCCC2)CC1,inactive: 11.1%
21,O=C(Nc1ccc(C(F)(F)F)cc1)C1CCCN(c2cnccn2)C1 (stereo not given),inactive: -4.72%
22,COc1ccccc1NC(=O)c1cc2c(=O)oc3ccc(C)cc3c2s1,inactive: 6.44%
23,Cc1ccc(NC(=O)CSc2nc3c(oc4ccccc43)c(=O)n2-c2ccc(F)cc2)c(C)c1,inactive: 11.5%
24,CCCCOc1ccccc1C(=O)N(Cc1ccc(C)o1)C1CCS(=O)(=O)C1 (stereo not given),inactive: -15.7%

row,Structure (SMILES),"activity change, negative = cytotoxicity"
1,O=C(O)CSc1c2c(nc3cc(C(=O)Nc4ccc(F)c(Cl)c4)ccc13)CCC2,inactive: -2.43%
2,COc1ccc(Nc2ncc3c(n2)CCN(Cc2cc(Br)cs2)C3)c(OC)c1,inactive: 20.4%
3,CC(C)c1ccc(S(=O)(=O)NCc2ccc3c(c2)CCN3C(=O)c2ccccc2)cc1,inactive: -8.75%
4,COCCNC(=O)CSc1nc2cc3c(cc2c(=O)n1CCCCCC(=O)NCc1ccc(OC)cc1)OCO3,inactive: 11.2%
5,COc1ccc(CNC(=O)c2ccc3c(c2)nc2n3CCC(C)C2)c(OC)c1 (stereo not given),inactive: 9.57%
6,CCOc1ccccc1NC(=O)Cn1nnc2sc(-c3ccccc3)cc2c1=O,inactive: 11.6%
7,COCCCNC(=O)CCCCn1c(=O)c2ccccc2n(CC(=O)Nc2ccc(C)cc2C)c1=O,inactive: 1.77%
8,Cn1nc(-c2ccc(C(=O)Nc3ccc(F)cc3)cc2)c2ccccc2c1=O,inactive: -18.4%
9,C=Cc1ccc(Cn2nc(-c3ccc(C)c(S(=O)(=O)N(CC)CC)c3)ccc2=O)cc1,inactive: -20.1%
10,Cc1cccn2c(=O)c3cc(C#N)c(=O)n(-c4nnc(SCc5ccccc5F)s4)c3nc12,inactive: -16.2%
11,Cc1cc(C)c(NC(=O)Cn2c(=O)n(Cc3ccc4c(c3)OCO4)c(=O)c3ccc(C(=O)NC4CCCCC4)cc32)c(C)c1,inactive: 6.54%
12,O=C(NCc1ccccc1F)c1ccc(CN2CC(=O)N3CCCCC3C2=O)cc1 (stereo not given),inactive: 20.3%
13,CCOC(=O)c1sc2cccc(F)c2c1S(=O)(=O)N1CCN(c2cccc(Cl)c2)CC1,inactive: -9.68%
14,CCCn1c2ccccc2c2cnn(CC(=O)N3CCC(C)CC3)c(=O)c21,inactive: 3.06%
15,CCc1ccc(CNC(=O)c2cnc3sc4cc(OC)ccc4n3c2=O)cc1,inactive: 4.35%
16,COc1cccc(C(=O)N2c3cc(C)ccc3C(C)(c3ccccc3)CC2(C)C)c1 (stereo not given),inactive: -4.36%
17,N#C/C(=C\c1ccc(Cl)cc1)c1nc(-c2cc3ccccc3oc2=O)cs1,inactive: -4.99%
18,CCC(C)NC(=O)Cn1ncc2c([nH]c3ccc(C)cc32)c1=O (stereo not given),inactive: 9.53%
19,CCc1cccc(NC(=O)Cn2nc(-c3ccc(OC)cc3)ccc2=O)c1,inactive: -3.23%
20,CCOc1ccccc1NC(=O)Cn1c(=O)n(Cc2ccccc2)c(=O)c2c(C)c(C)sc21,inactive: 5.85%
21,O=C(Nc1nc2n(n1)C(c1ccccc1)C=C(c1ccccc1)N2)c1ccc(Cl)c([N+](=O)[O-])c1 (stereo not given),inactive: -2.35%
22,Cc1cccc(C)c1Nc1sc(C(=O)c2ccccc2)c(N)c1C(=O)Nc1ccc(F)cc1,inactive: -22.3%
23,CC(C)OCCCNC(=O)c1cc2c(-c3ccc(Cl)cc3)nn(C)c2s1,inactive: -8.23%
24,COc1cc(NC(=O)C2CCCN(S(=O)(=O)c3ccc4c(c3)oc(=O)n4C)C2)c(C(=O)O)cc1OC (stereo not given),inactive: 1.81%

row,Structure (SMILES),"activity change, negative = cytotoxicity"
1,CCCCC(Sc1nc2cc3c(cc2c(=O)n1CCCC(=O)NCc1ccc(OC)cc1)OCO3)C(=O)OCC (stereo not given),inactive: -1.12%
2,Cc1ccc(NC(=O)c2c(C)oc3ccc(O)c(CN4CCCCCC4)c23)c(C)c1,inactive: -12.5%
3,CCOC(=O)c1[nH]c(C)c(CCC(=O)NCc2ccc(OCC)cc2)c1C,inactive: -12%
4,CCc1cccc(NC(=O)CCS(=O)(=O)c2cc(Br)cc3c2N(C(C)=O)CC3)c1,inactive: 2.76%
5,COc1cc(OC)cc(C(=O)Nc2ccc3c(c2)N(C2CCCC2)C(=O)c2ccccc2S3)c1,inactive: 2.3%
6,O=C(NCc1ccccc1Cl)c1cc2ccccc2o1,inactive: 6%
7,O=C(CSc1nc2ccccc2nc1Cc1ccccc1)N1CCCCC1,inactive: -17.9%
8,Cc1cc(C)cc(-n2c(SCC(N)=O)nc3c(oc4ccccc43)c2=O)c1,inactive: 3.04%
9,CCOc1ccccc1NC(=O)Cn1cnc2sc(C)c(S(=O)(=O)N3CCC(C)CC3)c2c1=O,inactive: -0.947%
10,COc1cccc(Nc2c3c(nc4nncn24)CCC3)c1,inactive: -2.69%
11,CCc1ccc(C2CC(=O)Nc3c2c(C)nn3-c2nc(C)cc(C)n2)cc1 (stereo not given),inactive: -6.06%
12,CCOc1ccccc1NC(=O)N1CCN(Cc2nc3ccc(C)cc3o2)CC1,inactive: 13.5%
13,Cc1ccc(C)c(N2CCN(S(=O)(=O)c3c(C)nc4sccn4c3=O)CC2)c1,inactive: 4.6%
14,Cc1nc2ccccc2c(=O)n1-c1ccc(NC(=O)c2ccc([N+](=O)[O-])cc2)cc1,inactive: -1.44%
15,COc1ccc(N2CCN(C(=O)CCc3c(C)nc4cc(-c5ccc(Cl)cc5)nn4c3C)CC2)cc1,inactive: -11.2%
16,COc1ccc(-c2[nH]nc3nc(-c4cc(OC)c(OC)c(OC)c4)cc(C(=O)O)c23)cc1,inactive: 5.33%
17,CCC(=O)NCC(c1ccc2c(c1)OCO2)N1CCN(c2ccccc2)CC1 (stereo not given),inactive: 11.3%
18,COc1ccc(C(=O)Nc2nnc(S(=O)(=O)N(C)c3ccc(Cl)cc3)s2)cc1OC,inactive: -0.0829%
19,Cc1ccccc1CNC(=O)C(=O)NCC(c1ccco1)S(=O)(=O)c1ccccc1 (stereo not given),inactive: -2.47%
20,Cc1ccc(CCNC(=O)c2cn(C)c3ccc(S(=O)(=O)N4CCCCC4)cc3c2=O)cc1,inactive: -20.6%
21,CCCS(=O)(=O)N1CCCC(C(=O)NCCCOC)C1 (stereo not given),inactive: 10.2%
22,COCCCNC(=O)CN1C(=O)COc2ccc(S(=O)(=O)N3CCCC3)cc21,inactive: 0.179%
23,Cc1ccc(NC(=O)Cn2c(=O)c3cc(Cl)ccc3n3nncc23)cc1,inactive: -2.09%
24,Cc1n[nH]c(C)c1S(=O)(=O)N(CC(=O)NC(C)c1ccccc1)c1ccc(C(C)C)cc1 (stereo not given),inactive: -2.79%

row,Structure (SMILES),"activity change, negative = cytotoxicity"
1,COc1ccc(C(=O)NCCn2cc(SCC(=O)NCCc3ccc(OC)c(OC)c3)c3ccccc32)cc1,inactive: -21.1%
2,COc1cccc(NC(=O)Cn2cnc3c(nc4n3CCCCC4)c2=O)c1,inactive: 0.101%
3,COCCCNc1ncnc2onc(-c3ccc(F)cc3)c12,inactive: -4.54%
4,CS(=O)(=O)N1CCc2cc(C(=O)NCCc3ccccc3)ccc21,inactive: 0.7%
5,Cc1ccc(-c2cc(C(=O)N3CCN(S(=O)(=O)c4ccc(Br)cc4)CC3)[nH]n2)cc1C,inactive: -12.5%
6,CC1=C(c2ccc(C)c(C)c2)S(=O)(=O)N=C1N1CCC(C(=O)NCCc2ccco2)CC1,inactive: -16.7%
7,COc1cccc(C(=O)Nc2ccccc2C(=O)OCc2cc(=O)n3c(C)csc3n2)c1,inactive: 2.38%
8,COc1ccc(NC(=O)Cn2c(C)cc3ccccc3c2=O)c(OC)c1,inactive: 13.5%
9,Cc1nn(-c2nc(-c3ccc(F)cc3)cc(C(F)(F)F)n2)c(C)c1Br,inactive: -5.63%
10,COC(=O)c1cc(C)nc2c1c(=O)nc(SCc1cccc(C)c1)n2C1CC1,inactive: 12.1%
11,CC1=Nc2cc(C(=O)NC3CCCC3)ccc2Sc2ccc(C)cc21,inactive: 1.9%
12,COc1ccccc1OCC(=O)N(Cc1ccc(Cl)cc1)CC1CCCO1 (stereo not given),inactive: 0.17%
13,CCc1cccc(CC)c1NC(=O)c1ccc2c(c1)CCN2S(=O)(=O)c1ccccc1,inactive: -1.73%
14,CC(=O)c1ccc(NC(=O)CC2Nc3cccc4cccc(c34)NC2=O)cc1 (stereo not given),inactive: 1.06%
15,Cc1cccc(NC(=O)CN2C(=O)c3cccnc3Oc3ccc(Cl)cc32)c1C,inactive: -0.0463%
16,CSc1ccc(CCNC(=O)CCCn2nc(C)c3sc4ccccc4c3c2=O)cc1,inactive: 3.87%
17,CCOc1ccc(CNC(=O)CCS(=O)(=O)c2cc3c(cc2Cl)NC(=O)CO3)cc1OC,inactive: 2.48%
18,CCOC(=O)c1ccccc1NC(=O)Nc1cc2c(cc1N1CCCCC1)n(C)c(=O)n2C,inactive: 3.47%
19,Cc1nn(-c2ccc(F)cc2)c(-n2cccc2)c1C(=O)NCCCN1CCN(c2ccccc2F)CC1,inactive: -4.42%
20,COc1cccc(NC(=O)CCc2c(C)nc3c4cccnc4nn3c2C)c1,inactive: -3.02%
21,O=C(Nc1ccc(N2CCC(c3ccccc3)C2)c(C(=O)O)c1)c1ccc(Cl)cc1 (stereo not given),inactive: -2.49%
22,CCOc1ccc(Oc2nc(NCC(C)C)nc(NC(C)(C)C)n2)nn1,inactive: -4.72%
23,COc1ccc(NC(=O)C(=O)NCCc2ccc(OC)c(OC)c2)c(OC)c1,inactive: 7.78%
